In the supplement of paper PMC12645437, “Orthogonal IMiD-Degron Pairs Induce Selective Protein Degradation in Cells” (ACS Chemical Biology, 2025):
Some of the results follow.

target: no compound (DMSO); assay: log2 fold change of degron read counts, EGFP-low vs EGFP+ sorted cells; higher = lower degron-EGFP level without compound (poor expression or instability); settings: compound: DMSO control; 18 h
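Also: jurkat cells carrying a lentiviral library of mutant zinc finger degrons fused to EGFP plus mCherry, mCherry+ cells FACS sorted, degron abundance counted by next-generation sequencing.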

Sequence | log2 fold change of degron read counts
FYCPQCGASFTQKGNLLRHIKL | -0.232
FVCNICGALFTQKGNLLRHIKL | 0.258
FACEICGRWFTQKGNLLRHIKL | 0.0696
FFCNICGAAFTQKGNLLRHIKL | 0.104
FICEQCGATFTQKGNLLRHIKL | -3.24
FSCPICGHWFTQKGNLLRHIKL | 0.283
FNCEQCGAHFTQKGNLLRHIKL | -2.72
FHCEICGAHFTQKGNLLRHIKL | -1.46
FDCNICGANFTQKGNLLRHIKL | -0.475
FCCNVCGAHFTQKGNLLRHIKL | -0.0947
LCCNQCGFGCTQKGNLLRHIKL | 0.937
FYCNICGAEFTQKGNLLRHIKL | -0.936
LRCEICGFYCTQKGNLLRHIKL | 1.39
FQCPVCGAPFTQKGNLLRHIKL | 0.533
LHCNQCGFWCTQKGNLLRHIKL | 1.94
FKCNQCGHSFTQKGNLLRHIKL | -0.45
FRCSVCGHTFTQKGNLLRHIKL | -0.0669
LECNQCGFYCTQKGNLLRHIKL | 0.772
LWCNQCGFLCTQKGNLLRHIKL | 2.68
FVCNQCGAWFTQKGNLLRHIKL | 0.549
FSCNICGAEFTQKGNLLRHIKL | -1.83
FMCPICGRQFTQKGNLLRHIKL | 0.239
LFCPICGFVCTQKGNLLRHIKL | 1.09
FHCPICGAFFTQKGNLLRHIKL | 0.327
FLCEICGRQFTQKGNLLRHIKL | -1.08

Sequence | log2 fold change of degron read counts
FRCPICGHIFTQKGNLLRHIKL | -0.141
FLCEICGRLFTQKGNLLRHIKL | -0.458
FWCNQCGAVFTQKGNLLRHIKL | 1.14
FKCPICGAKFTQKGNLLRHIKL | -1.66
FQCPQCGAMFTQKGNLLRHIKL | -1.16
FSCNICGAGFTQKGNLLRHIKL | -0.237
FECEICGRPFTQKGNLLRHIKL | -1.39
LVCNQCGFRCTQKGNLLRHIKL | 0.532
FRCNICGAPFTQKGNLLRHIKL | -0.107
FNCEICGASFTQKGNLLRHIKL | -1.27
FKCDVCGACFTQKGNLLRHIKL | -1.31
FDCPICGRRFTQKGNLLRHIKL | -0.262
FICSVCGHTFTQKGNLLRHIKL | -1.36
FYCNQCGASFTQKGNLLRHIKL | -0.0474
FVCNQCGANFTQKGNLLRHIKL | -1.51
FSCNVCGAKFTQKGNLLRHIKL | -0.594
LACPICGFLCTQKGNLLRHIKL | 1.48
FDCPQCGARFTQKGNLLRHIKL | -0.899
FQCPQCGAAFTQKGNLLRHIKL | -0.83
FTCSVCGHTFTQKGNLLRHIKL | -1.28
FGCNQCGRGFTQKGNLLRHIKL | 0.709
FCCEICGADFTQKGNLLRHIKL | -2.47
FMCDVCGADFTQKGNLLRHIKL | -1.1
FECEICGAEFTQKGNLLRHIKL | -2.6
LRCNQCGFACTQKGNLLRHIKL | 0.953
